Reference: paper PMC5144080, “GSK-3β controls NF-kappaB activity via IKKγ/NEMO” (Scientific Reports, 2016)

Target: the molecule itself
Test: native gel or EMSA; part of the anti-GFP immunoprecipitate from transfected HEK293 cells examined by native gel electrophoresis to detect NEMO dimerization

B1: GFP-tagged triple-mutated NEMO-S8, 17, 31A (natural protein)
chain: not shown
notes: also called triple mutant S8, 17, 31A; S8A, S17A, S31A mutant of NEMO; source: HEK293, transfected, in lysate
Question: B1 was tested. Which “stoichiometry N” value did it give?
Answer: The value was 2.
